# Hit rate of the full screen: of about 94,000 compounds, about 4,000 (4.3%) were called active. The inconclusive results got no clear call from the source; some entries with a clear call stand among them for comparison. Calls come from the whole dose curve; as a rule, active = well fitted inhibition curve with a large enough effect; inconclusive = small, poorly fitted or top-dose-only effect; inactive = no such curve, though single readings can be large or run the other way. Where the call is inconclusive, the potency comes from a doubtful curve fit.
# Experiment: Cytotoxic Profiling in NIH 3T3 Cell Line of Diverse Libraries Using Quantitative High-Throughput Screening; note: nearly all actives have a fitted effect of over 55% in size
# Conditions: NIH 3T3 viability, CellTiter-Glo ATP luminescence, 48-72 h; activity change, negative = cytotoxicity: at 96.7 µM (top of the series) unless noted; series mostly up to 96.7 µM
# Procedure, shortened: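 NIH 3T3 cells at 400 cells/well received 23 nL of compound by pintool and were incubated 48 or 72 h at 37 °C. Viability was read as ATP-coupled CellTiter-Glo luminescence.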
# % is set by controls: 0 for no effect and ±100 for the full control effect; potency is the fitted concentration of half-maximal effect; tags give direction and shape of the fitted curve.
SMILES,Potency,"activity change, negative = cytotoxicity",outcome
CC1(CCCCc2ccccc2)COc2ccc(C(=O)NCCc3cnc[nH]3)cc2N1 (stereo unspecified),"inconclusive: 112 µM [inhibitor, single point]",,
Cc1cccc(NC(=O)C2CCN(C(=O)c3ncn4c3COC(c3ccccc3)C4)CC2)c1 (stereo unspecified),,inactive: 1.36%,
O=C(NC1CCN(C(=O)N2CC3CC(C2)[C@H]2CCCC(=O)N2C3)CC1)c1n[nH]c(=O)c2ccccc12 (stereo partly specified),,,inactive
C#CCNC(=O)C1CCN(C(=O)c2ccc(-c3cccs3)cc2)CC1,"inconclusive: 50.1 µM [inhibitor, partial curve, poor fit]",,
CC(C)=CCn1c(-c2cc(C)oc2C)cn2cc(C(=O)N[C@@H](C)C(N)=O)nc2c1=O,,inactive: -24.5%,
Cc1ccc(C(=O)Nc2cccc(-c3ccc(N4CCN(C)CC4)nn3)c2)cc1C,active: 25.1 µM,,
COc1ccccc1CNC(=O)c1c(C)sc2ccn(Cc3ccc(F)cc3)c(=O)c12,"inconclusive: 44.7 µM [inhibitor, partial curve, poor fit]",,
Cc1nnc(C2CCCCCN2S(=O)(=O)c2ccccc2C)o1 (stereo unspecified),,inactive: -9.49%,
Cc1nn(-c2ccccc2)c2c1C(C1CC1)N(C1CCN([S+](=O)([O-])c3cccs3)C1)C2=O (stereo unspecified),"inconclusive: 14.1 µM [inhibitor, partial curve, poor fit]",,
CC(C)C(=O)N1CCC2(CC1)OC(=O)N(Cc1ccccc1)C2(C)c1ccccc1 (stereo unspecified),active: 10 µM,,
COc1ccc(-c2cc(N3CCC(NC(=O)c4ccc5nc[nH]c5c4)CC3)n[nH]2)cc1,,inactive: -15.4%,
Cc1ccc(CN2CCn3c(nn(-c4ccc([N+](=O)[O-])cc4)c3=O)C2)cc1,"inconclusive: 44.7 µM [inhibitor, partial curve, poor fit]",,
O=C1c2cc(N3CCOCC3)nc(-c3cccc(O)c3)c2CN1CC(F)(F)F,"inconclusive: 3.16 µM [inhibitor, full curve, poor fit]",,
Cc1ccc(NC(=O)c2cc3n(n2)CC(c2ccc(Cl)cc2)OC3)cc1 (stereo unspecified),"inconclusive: 50.1 µM [inhibitor, partial curve, poor fit]",,
O=C(Nc1cc(-c2ccncc2)nn1-c1ccccc1)c1cccc(Cl)c1,"inconclusive: 44.7 µM [inhibitor, partial curve, poor fit]",,
CNC(=O)c1cc(C)nc2onc(C3CCN(C(=O)c4ccc(Cl)nc4)CC3)c12,,inactive: 0.731%,
COc1ccc(CC(=O)N2CC(=O)N(C3CCCCC3)CC(O)C2)cc1 (stereo unspecified),"inconclusive: 79.4 µM [inhibitor, partial curve, poor fit]",,
COCCN1C[C@H]2COc3ccccc3[C@H]2N(C(=O)CC2CCCC2)CCC1=O,"inconclusive: 44.7 µM [inhibitor, partial curve, poor fit]",,
Cc1cn2nc(C(=O)N3CCC(C)CC3)cc2c(N(C)Cc2ccccc2)n1,active: 35.5 µM,,
Oc1ccc(-c2nc(C3CC3)nc3c2CN(Cc2ccc(OC(F)(F)F)cc2)CC3)cc1,"inconclusive: 70.8 µM [inhibitor, partial curve, poor fit]",,
COc1ncccc1CNC[C@H]1Cn2c(-c3ccc(Cl)cc3)cnc2CO1,active: 89.1 µM,,
O=C(C1CCc2nnc(-c3ccc(Cl)nc3)n21)N1CCCC1 (stereo unspecified),"inconclusive: 79.4 µM [inhibitor, partial curve, poor fit]",,

SMILES,Potency,"activity change, negative = cytotoxicity",outcome
O=C(Nc1ccc(F)cc1)c1ccc2oc(-c3cccnc3Cl)nc2c1,"inconclusive: 14.1 µM [inhibitor, full curve, poor fit]",,
CC(=O)c1ccc(N2CCN(C(=O)c3nnn4c3COC(c3ccc(F)cc3)C4)CC2)cc1 (stereo unspecified),"inconclusive: 79.4 µM [inhibitor, partial curve, poor fit]",,
O=C(c1cc2ccccc2[nH]1)N1CCc2c(n(Cc3cccnc3)n(CCc3ccccc3)c2=O)C1,"inconclusive: 28.2 µM [inhibitor, partial curve]",,
COc1ccccc1-c1nc(C(=O)N(C)C)n2ccccc12,,inactive: 0.868% [at 138 µM],
COc1ccc(F)c(CN2CCCC(O)(CN3CCC(C)CC3)C2=O)c1 (stereo unspecified),,inactive: -1.9%,
CCCNC(=O)N(C1CCOCC1)C1CCN(C(=O)c2ccc(Cl)cc2OC)CC1,"inconclusive: 50.1 µM [inhibitor, partial curve, poor fit]",,
O=C(Cc1ccc(F)cc1)N1CCn2c(nnc2-c2ccccc2)C1,"inconclusive: 70.8 µM [inhibitor, partial curve, poor fit]",,
Cc1ccc(NC(=O)N2CC(c3nnc(-c4ccncc4)o3)C3(CCOCC3)C2)cc1C (stereo unspecified),,inactive: -24.3%,
O=C1CN([S+](=O)([O-])c2ccc(F)cc2)CC(O)CN1Cc1cccc(F)c1 (stereo unspecified),"inconclusive: 56.2 µM [inhibitor, partial curve, poor fit]",,
O=C(NCC(F)(F)F)C1CCN(c2nccc(Nc3ccccc3F)n2)CC1,,inactive: -32.4%,
Cc1cc(=O)n(CC(=O)Nc2ccc(C)c(F)c2)c(N2CCc3ccccc3C2)n1,"inconclusive: 6.31 µM [inhibitor, full curve, poor fit]",,
O=C(c1ccncc1)N1CCCC(n2cc(-c3nc(-c4ccccc4)no3)nn2)C1 (stereo unspecified),"inconclusive: 17.8 µM [inhibitor, partial curve, poor fit]",,
CCOC(=O)C1=CN(CC(=O)NC(C)c2ccccc2)S(=O)(=O)N=C1C (stereo unspecified),,inactive: -16%,
O=C(NCc1cccnc1)C1(CCO)CC12CCOCC2 (stereo unspecified),,,inactive
COc1ccc(CN2CCC(N3Cc4cnc(C)n4C3=O)CC2)cc1,inactive,,
COc1cccc(CNC(=O)[C@@H]2C[C@@H](O)CN2C2CCN(C(=O)c3ccc(OC)cc3OC)CC2)c1,,inactive: -12%,
C[S+](=O)([O-])N1CCCC2(Cc3ccccc3CN2C(=O)C2CCCC2)C1 (stereo unspecified),"inconclusive: 31.6 µM [inhibitor, partial curve]",,
CC(C)CNC(=O)c1nc2sccn2c1-c1cccc(C#N)c1,,inactive: -25.7% [at 138 µM],
Cc1onc(-c2cnn(C)c2NCc2ccccc2)c1C(=O)NCCc1cccnc1,"inconclusive: 112 µM [inhibitor, single point]",,
COCC(=O)NCCNC(=O)c1ccc(-c2cncnc2)cc1,,inactive: -18.1% [at 138 µM],
COc1cccc(-c2noc(CC3CCN(C(=O)c4cc(OC)c(OC)c(OC)c4)CC3)n2)c1,"inconclusive: 44.7 µM [inhibitor, partial curve, poor fit]",,
O=C(c1cccs1)N1CCC(Oc2cccnc2)C1 (stereo unspecified),,inactive: -4.39%,

SMILES,Potency,"activity change, negative = cytotoxicity",outcome
Cc1ccncc1-c1c(C)nn2c1N(C(=O)c1cccc(Cl)c1)CCC2,"inconclusive: 25.1 µM [inhibitor, full curve]",,
O=C(CCc1nc2ccc(Cl)cc2[nH]1)N1CC(CO)C2(CCNCC2)C1 (stereo unspecified),,inactive: -10.2%,
CN1CCC(Nc2ccc3c(n2)CN(Cc2ccc(C(F)(F)F)cc2)C(=O)CO3)CC1,"inconclusive: 56.2 µM [inhibitor, partial curve, poor fit]",,
CN(Cc1cccnc1)c1nc2c(c(=O)[nH]1)CCN(Cc1ccc(Cl)cc1F)CC2,"inconclusive: 22.4 µM [inhibitor, partial curve]",,
CSc1cccc(NC(=O)Nc2cccc(-c3ccc(N4CCCC4)nn3)c2)c1,"inconclusive: 31.6 µM [inhibitor, partial curve]",,
CC(=O)Nc1cccc(C(=O)Nc2cccc(-c3nnc4n3CCCC4)c2)c1,"inconclusive: 79.4 µM [inhibitor, single point]",,
COCCN1C(=O)c2cccn2CC1CNC(=O)c1ccoc1 (stereo unspecified),,inactive: -2.13%,
CCNC(=O)N1CCCC1C(=O)Nc1ccccc1-c1ccc(OC)cc1 (stereo unspecified),,inactive: -3.99%,
O=C(Nc1cccc2ccccc12)O[C@@H]1CO[C@H]2[C@@H]1OC[C@@H]2NC(=O)N1CCOCC1,,inactive: -21.5% [at 174 µM],
COCCC(=O)N[C@@H]1CN(Cc2ccccc2)C[C@H]1CN(C)C,,inactive: -13%,
COc1cccc(N2CCN(C(=O)CCc3conc3-c3ccccc3)CC2)c1,"inconclusive: 31.6 µM [inhibitor, partial curve]",,
Fc1cccc(CN2CCC(Oc3ccc(-c4noc(C5CC5)n4)cc3)C2)c1 (stereo unspecified),"inconclusive: 50.1 µM [inhibitor, partial curve, poor fit]",,
CCCC(C)NC(=O)c1cc(-c2ccc(C(F)(F)F)cc2)nc2c1cnn2C (stereo unspecified),"inconclusive: 31.6 µM [inhibitor, partial curve, poor fit]",,
COc1ccc(C(=O)N2CCC3(CC2)CC(C(C)C)=NO3)cc1,active: 100 µM,,
O=C(c1ccc2c(c1)OCO2)N1CCC(n2cc(-c3nc(-c4ccccc4)no3)nn2)CC1,"inconclusive: 44.7 µM [inhibitor, partial curve, poor fit]",,
N#Cc1cccnc1N1CCC(NC(=O)c2ccc3cccc(F)c3n2)CC1,"inconclusive: 50.1 µM [inhibitor, partial curve, poor fit]",,
O=C(COc1ccc(-c2nnc3n2CCCC3)cc1)Nc1ccc(Cl)cc1,,inactive: -5.43%,
O=C(CCc1ccccc1Cl)N1CCn2nc(Cc3ccccc3)cc2C1,"inconclusive: 79.4 µM [inhibitor, partial curve, poor fit]",,
O=C1CCN(CC(O)Cc2ccccc2)c2ccc(F)cc2CN1Cc1ccccc1 (stereo unspecified),"inconclusive: 44.7 µM [inhibitor, partial curve, poor fit]",,
Cc1ccc(CN2C[C@@H](CO)[C@H](c3nc(-c4ccncc4)no3)C2)cc1,"inconclusive: 20 µM [inhibitor, partial curve, poor fit]",,
CN1C(=O)C2(CCN(C(=O)CCC3CCCC3)CC2)c2ccccc21,,inactive: -19.2%,
Cc1ccsc1C(=O)N1CCC2(CC1)CC(N(C(=O)c1ccccc1)C1CC1)CCO2 (stereo unspecified),"inconclusive: 44.7 µM [inhibitor, partial curve, poor fit]",,

# From PubChem BioAssay AID1345082 (National Center for Advancing Translational Sciences (NCATS), 2018)
